Results from PubChem BioAssay AID686979 (National Center for Advancing Translational Sciences (NCATS), 2013).
Screen size: about 420,000 compounds; about 50,000 (12%) were called active. Inconclusive means that the source gave no clear call. Such entries were picked first, then a sample of the others. Calls come from the whole dose curve; as a rule, active = well fitted inhibition curve with a large enough effect; inconclusive = small, poorly fitted or top-dose-only effect; inactive = flat fitted curve, though single readings scatter. Potencies of inconclusive entries are left out as doubtful fits.
% is set by controls: 0 for no effect and ±100 for the full control effect; potency is the fitted concentration of half-maximal effect; tags give direction and shape of the fitted curve.

Assay: qHTS for Inhibitors of human tyrosyl-DNA phosphodiesterase 1 (TDP1): qHTS in cells in presence of CPT; note: nearly all actives have a fitted effect of over 55% in size
Details: chicken DT40 Tdp1-/-;hTDP1 cells + 20 nM CPT, ATP luminescence, 48 h; activity change, negative = growth inhibition: at 46.2 µM (top of the series) unless noted
In short: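 Chicken DT40 Tdp1-/- cells complemented with human TDP1, 400 cells/well, exposed to compounds plus 20 nM camptothecin for at least 48 h at 37 C; viability read as ATP content by CellTiter-Glo luminescence.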
With `Nc1nc(N)c(N=Nc2ccccc2)c(=O)[nH]1` the Potency was active: 20.6 µM.
With `CCC(=O)NCCc1nc2cc(NC(=O)c3ccccc3OC)ccc2n1C` the Potency was inconclusive [inhibitor, partial curve, poor fit].
With `NC(=O)c1ccc(-c2nnc(Nc3ccc(S(N)(=O)=O)cc3)c3ccccc23)cc1` the Potency was inconclusive [inhibitor, single point].
In the case of `CCOC(=O)CC(NC(=O)Cc1cccs1)c1ccccc1Cl` (stereo unspecified), the “activity change, negative = growth inhibition” value is reported as inactive: 3.45%.
In the case of `Cc1ccc(-c2noc(CSc3nnnn3-c3ccccc3)n2)cc1`, the “activity change, negative = growth inhibition” value is reported as inactive: -3.52%.
In the case of `COc1ccccc1C(C(=O)c1ccccc1)c1ccc(O)cc1` (stereo unspecified), the Potency is reported as inconclusive [inhibitor, single point].
With `O=S(=O)(CC(CN1CCCC1)N1CCCC1)c1ccc2ccccc2c1` (stereo unspecified) the Potency was active: 3.26 µM.
With `CCOCCCNC(=O)C(NC(=O)c1ccccc1O)c1ccc(Cl)cc1` (stereo unspecified) the “activity change, negative = growth inhibition” value was inactive: -7.08%.
For `Cn1c(=O)c2c(-c3ccccc3)n(-c3cccc(O)c3)cc2n(C)c1=O`, the Potency was active: 18.4 µM.
For `CCOC(=O)[C@]12CCC=C1N(CCC1=CCCCC1)C(=O)[C@H](CC(=O)NCCC(C)C)C2`, the Potency was inconclusive [inhibitor, single point].
With `O=C(COC(=O)c1ccccc1SCC(=O)N1CCCC1)NCc1ccc(F)cc1` the “activity change, negative = growth inhibition” value was inactive: -2.57%.
For `COc1ccc(Nc2nc(C)nc3c2oc2ccccc23)cc1`, the Potency was inconclusive [inhibitor, single point].
For `COc1ccc(C)cc1NC(=O)C1CCCN1S(=O)(=O)c1ccccc1F` (stereo unspecified), the Potency was inconclusive [inhibitor, single point].
For `Cn1c(-n2cccc2)c(-c2c(-c3ccc(F)cc3)[nH]c3c2c(=O)[nH]c(=O)n3C)c(=O)[nH]c1=O`, the “activity change, negative = growth inhibition” value was inactive: 0.151%.
With `CC1CCCN(C(=O)Cn2c(=O)n(CC3CCC(C(=O)NC(C)C)CC3)c(=O)c3sccc32)C1` (stereo unspecified) the “activity change, negative = growth inhibition” value was inactive: -29%.
In the case of `COCCNc1ccc(-c2nc(-c3cccc(C)c3)no2)cc1[N+](=O)[O-]`, the activity change, negative = growth inhibition is reported as inconclusive: -32.5% [inhibitor].
For `Cc1ccc2nc(-c3ccc(NC(=O)COC(=O)c4cncc(Br)c4)cc3)sc2c1`, the “activity change, negative = growth inhibition” value was inactive: 6.33%.
With `CN1C(C)(C)CCCC1(C)C` the activity change, negative = growth inhibition was inconclusive: 1.83% [inhibitor].
In the case of `O=C1CN(c2ccccc2)C(=S)N1C(=O)c1ccccc1`, the “activity change, negative = growth inhibition” value is reported as inactive: -0.0857%.
For `Cc1ccc(S(=O)(=O)Nc2cccc(-c3cn4ccsc4n3)c2)cc1`, the Potency was inconclusive [inhibitor, single point].
In the case of `Cc1cc(C)nc(N2CCN(c3ncnc4c3cnn4Cc3ccc(Cl)cc3Cl)CC2)n1`, the Potency is reported as inconclusive [inhibitor, full curve].
With `COc1ccc(/C=C/C(=O)NC(=S)Nc2ccc(S(=O)(=O)Nc3nccnc3OC)cc2)cc1` the “activity change, negative = growth inhibition” value was inactive: -2.48%.
In the case of `CN1CCN(C(=O)C2=C[C@@H](c3ccc(Br)cc3)C[C@@H](OCc3ccc(CO)cc3)O2)CC1`, the Potency is reported as inconclusive [inhibitor, single point].
With `CC(=O)N1CCN(c2ccc(NC(=O)C(C)Oc3ccc(Cl)cc3Cl)cc2)CC1` (stereo unspecified) the Potency was inconclusive [inhibitor, single point].
With `N#CCc1nn2c3c(cnc2c1C#N)C(=O)CCC3` the “activity change, negative = growth inhibition” value was inactive: -4.66%.
With `Cc1cccc(N(C(=O)Cc2cccs2)C(C(=O)NC2CCCC2)c2ccsc2)c1` (stereo unspecified) the activity change, negative = growth inhibition was inconclusive: -34.9% [inhibitor].
With `O=S(=O)(c1ccc(N2CCCC2c2nc3ccccc3s2)nc1)N1CCOCC1` (stereo unspecified) the “activity change, negative = growth inhibition” value was inactive: -5.75%.
In the case of `C/C=C(\C)CN1CCCC(N(C)CCc2ccc(OC)c(OC)c2)C1` (stereo unspecified), the “activity change, negative = growth inhibition” value is reported as inactive: 4.03%.
In the case of `Cc1cc(OCC(=O)NCc2ccccn2)c2c(C)c(C)c(=O)oc2c1`, the Potency is reported as inconclusive [inhibitor, partial curve, poor fit].
In the case of `N#CCc1nn(-c2ccccc2)c2ncnc(N)c12`, the “activity change, negative = growth inhibition” value is reported as inactive: -13.9%.
In the case of `Cc1ccc(C2C(/C=C3/SC(=S)NC3=O)=C(c3cccs3)Oc3ccccc32)cc1` (stereo unspecified), the “activity change, negative = growth inhibition” value is reported as inactive: -23.3%.
With `O=[N+]([O-])c1cc(S(=O)(=O)N2CCCC2)ccc1OCCOc1ccccc1` the Potency was inconclusive [inhibitor, partial curve].
For `Cc1ccc2c(c1)C(=O)N1[C@H]3c4cc(Cl)ccc4OC[C@@H]3[C@H](c3ccccc3)[C@]1(C)C(=O)N2`, the Potency was inconclusive [inhibitor, single point].
In the case of `Cc1ccc2c(c1C)-c1c(ccc(C)c1C)C(=O)C2=O`, the Potency is reported as active: 0.92 µM.
In the case of `C[C@@H]1CN([C@@H](C)CO)C(=O)c2cc(C#Cc3ccccc3)cnc2O[C@@H]1CN(C)Cc1ccccn1`, the Potency is reported as inconclusive [inhibitor, single point].
In the case of `CCOc1ccc(NC(=O)C2CCCN2C(=O)Oc2ccccc2)cc1` (stereo unspecified), the “activity change, negative = growth inhibition” value is reported as inactive: 2.04%.
